# Experimental data from PubChem BioAssay AID488969 (Vanderbilt High Throughput Screening Facility, 2010).
# In all, about 110,000 compounds were measured (“z-score”: median about -0.1, highest 2% from about 2 on). Some of the results follow. The source made the active and inactive calls.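 How the source made its calls: active means z-score in the third read window above 3 or below -3; inactive means the rest.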
# Target: Metabotropic glutamate receptor 8 (Rattus norvegicus) (UniProt P70579)
# Assay: rat mGluR8 modulators via GIRK flux, primary screen, cell-based, thallium flux, HTS (AID 488969)
# Conditions: HEK293 rat mGluR8, GIRK (G protein-gated inwardly rectifying potassium channel) thallium flux, FluoZin2; at 10 µM; stronger effect = higher value; submaximal glutamate (EC20) added with thallium
# Sequence of UniProt P70579 (P70579 whole entry, looked up): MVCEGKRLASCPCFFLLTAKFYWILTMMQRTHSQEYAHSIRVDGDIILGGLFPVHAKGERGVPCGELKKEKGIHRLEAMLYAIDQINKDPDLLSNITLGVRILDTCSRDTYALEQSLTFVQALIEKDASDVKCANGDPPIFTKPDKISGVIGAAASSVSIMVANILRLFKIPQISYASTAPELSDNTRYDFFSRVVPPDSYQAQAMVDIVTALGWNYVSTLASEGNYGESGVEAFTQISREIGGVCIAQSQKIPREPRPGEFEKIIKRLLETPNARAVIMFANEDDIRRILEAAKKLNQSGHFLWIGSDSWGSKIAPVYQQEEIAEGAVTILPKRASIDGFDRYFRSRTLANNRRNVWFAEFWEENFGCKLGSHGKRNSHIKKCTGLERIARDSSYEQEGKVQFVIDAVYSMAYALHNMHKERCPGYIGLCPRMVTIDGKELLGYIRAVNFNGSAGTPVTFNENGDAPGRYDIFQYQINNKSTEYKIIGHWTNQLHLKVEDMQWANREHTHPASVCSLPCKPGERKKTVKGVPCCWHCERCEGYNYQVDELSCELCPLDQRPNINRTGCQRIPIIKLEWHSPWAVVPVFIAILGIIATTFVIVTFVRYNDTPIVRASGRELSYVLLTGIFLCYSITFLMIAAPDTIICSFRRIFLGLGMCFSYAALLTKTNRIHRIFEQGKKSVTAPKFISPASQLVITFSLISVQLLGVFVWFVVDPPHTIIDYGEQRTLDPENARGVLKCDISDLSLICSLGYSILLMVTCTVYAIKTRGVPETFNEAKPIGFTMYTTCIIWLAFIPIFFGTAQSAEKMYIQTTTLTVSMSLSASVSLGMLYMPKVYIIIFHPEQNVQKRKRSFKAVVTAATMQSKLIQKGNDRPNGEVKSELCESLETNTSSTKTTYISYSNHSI
row,Structure (SMILES),z-score
1,CC(=O)c1cnc(Nc2nc(C)c3cc(C)ccc3n2)nc1C,0.124
2,COc1ccc(NC(=O)N2CCC(n3nnc4cc(C)ccc43)CC2)cc1,0.307
3,CC(C)c1ccc(N2C(=O)CC(Sc3ncn[nH]3)C2=O)cc1 (configuration not stated),0.234
4,O=C(Nc1nnc(-c2ccco2)o1)c1ccc2ccccc2c1,2.95
5,O=C(CSc1nnc(-c2ccccc2F)n1CCc1ccccc1)Nc1ccc2[nH]c(=O)[nH]c2c1,0.388
6,Cc1cc(C)nc(NC(=O)NS(=O)(=O)Nc2ccc(Br)cn2)n1,-0.0493
7,O=C(CSc1nnc(Cc2ccccc2)o1)N1CCOCC1,-0.0933
8,CC(C)(C)NC(=O)c1ccnc(C(C)(C)C)c1,-0.0801
9,CCN(CC)S(=O)(=O)c1ccc(Cl)c(NC(=O)CSc2nnc(-c3cccs3)o2)c1,-0.359
10,O=C(NC1CCCCC1)c1cc([N+](=O)[O-])ccc1N1CCOCC1,0.0241
11,O=C(O)C1Nc2c(C(=O)N3CCOCC3)cccc2C2C=CCC12 (configuration not stated),-0.486
12,C/C(=C\C(=O)c1cccnc1)Nc1ccc(O)cc1,-0.0452
13,O=C(Nc1ccc(F)cc1)c1cccnc1NCCc1ccccc1,-0.0811
14,CC(/C=N/n1cnnc1)=C\c1ccccc1,-0.198
15,Cc1ccc(CC(=O)NCc2ccc3c(c2)OCO3)cc1,0.445
16,CCN(CC)C(=O)CSc1nc(C)cc(-c2cccs2)c1C#N,-0.163
17,CC(C)(C)NC(=O)CN1CCC(O)(c2ccc3c(c2)OCO3)CC1,-0.45
18,C=CCOc1c(Br)cc(CNn2nnnc2N)cc1OC,0.177
19,Cc1cc2cc(CN(Cc3ccc4c(c3)OCO4)C(=O)c3cnccn3)c3nnnn3c2cc1C,-0.159
20,CC1(C)CC(CC(=O)NC(=S)Nc2ccc([N+](=O)[O-])cc2)C(=O)O1 (configuration not stated),0.331
21,CC(C)N1CCC(=NNc2ccc(S(=O)(=O)N3CCOCC3)cc2[N+](=O)[O-])CC1,0.0912
22,Cc1cccc(NC2SC(=O)N(CC(=O)O)C2=O)c1 (configuration not stated),-0.0915
23,CC1=CC(C)(C)NC(=S)N1c1cccc2ccccc12,-0.0628
24,COc1nc(N=C(N)N)nc2c(C)cccc12,-0.132

row,Structure (SMILES),z-score
1,COc1ccc(C(=O)N2CC3(C)CC2CC(C)(C)C3)cc1OC (configuration not stated),-0.252
2,COC(=O)C1=C(C)Nc2ncnn2C1c1ccccn1 (configuration not stated),-0.0706
3,COC(=O)C1=C(C)N=c2s/c(=C3\C(=O)Nc4ccccc43)c(=O)n2C1c1ccccc1 (configuration not stated),0.131
4,Cc1ccc(CSc2ncnc3c2cnn3Cc2ccccc2)cc1,-0.449
5,CC(C(=O)O)N1C(=O)/C(=C/C=C/c2ccco2)SC1=S (configuration not stated),-0.305
6,CCOc1ccc(C(=O)N2CCSC2=S)cc1,-0.052
7,O=C(CN1C2CCCC1CC(NC(=O)c1ccco1)C2)Nc1ccccc1 (configuration not stated),-0.992
8,COc1cccc(-n2c(SCC(=O)c3c[nH]c4ccccc34)nc3ccccc3c2=O)c1,-0.0633
9,O=S(=O)(c1ccc(Br)s1)N1CCN(Cc2ccc3c(c2)OCO3)CC1,0.231
10,CN1CCN(c2ccc([N+](=O)[O-])cc2S(=O)(=O)N2CCOCC2)CC1,0.0267
11,O=C(Cc1cc(=O)[nH]c(=O)[nH]1)NCC1CCCO1 (configuration not stated),0.0579
12,C=CCOn1c(=O)c(-c2cccs2)[n+]([O-])c2ccccc21,active: 3.49
13,Cc1cccc(N=C2NC(=O)CS2)c1C,-0.967
14,CCCC1=[N+](CC(=O)c2ccc(C)cc2)CCn2cccc21,-0.333
15,CN(CCc1ccccn1)S(=O)(=O)c1ccc2c3c(cccc13)C(=O)N2,1.84
16,Cc1ccc2oc(-c3cccc(NC(=S)NC(=O)/C=C/c4ccco4)c3)nc2c1,-0.494
17,O=C(c1cccnc1)N(c1cc2sc(=O)oc2c2ccccc12)S(=O)(=O)c1ccccc1,-0.0775
18,CC/C(=N\NC(=O)CNC(=O)/C=C/c1ccco1)c1ccccc1,-0.106
19,O=C(Cc1ncc(C(F)(F)F)cc1Cl)N1CCN(c2cccc(Cl)c2)CC1,-0.497
20,O=C(Nc1nc(-c2ccccc2)cs1)c1cccc([N+](=O)[O-])c1,-0.264
21,CCN1CCN(C(=O)c2cn(CC)c3ccc(S(=O)(=O)N(C)C)cc3c2=O)CC1,0.0639
22,Cc1ccccc1NS(=O)(=O)c1ccc(OCC(=O)N2CCCC2)cc1,0.78
23,COc1ccc(C2CC(c3ccccc3)=NN2S(=O)(=O)c2ccccc2)c(OC)c1 (configuration not stated),-0.152
24,CN(C)c1ccc(N=Nc2ccccc2C(=O)OCC(=O)N2CCCC2)cc1,-0.116

row,Structure (SMILES),z-score
1,Cc1ccccc1-c1nc2sc3c(c2c(=O)o1)CCC3,-0.265
2,Cc1ccc(N2C(=O)CC(Sc3nc4ccccc4o3)C2=O)cc1Cl (configuration not stated),0.163
3,Cc1ccccc1NC(=O)CSc1[nH]c(=O)cc(C)c1C#N,-0.0106
4,CCOC(=O)c1c(C)c(C(=O)Nc2ccc3c(c2)OCO3)c(C)n1C,-0.165
5,CCOCC(O)CSCc1ccc(Cl)cc1 (configuration not stated),-0.407
6,Cn1cccc1Cc1nnc(SCC(=O)Nc2nc3ccccc3s2)n1CCc1ccccc1,-0.371
7,C=CCSc1nnc(-c2c[nH]c3ccccc23)n1CC,0.312
8,O=C(CSCC(=O)Nc1ccc2ccccc2c1)NCc1ccccc1,0.1
9,Cc1cc(C)n(-c2nnc(C)n2NC(=O)c2cccc(Cl)c2)n1,0.0281
10,COc1cc2nc(-c3ccccc3)nc(N3CCCC3)c2cc1OC,0.413
11,COC(=O)c1ccc(C(=O)OC)c(NC(=O)Nc2ccc3c(c2)OCO3)c1,0.0202
12,Cc1cccc(OCCCC(=O)NC(C)C)c1,-0.39
13,C=C(C)CSc1nnc(-c2cc(OC)c(OC)c(OC)c2)n1N,0.871
14,N#Cc1ccccc1NC(=O)c1ccc2c(Cl)c3c(nc2c1)CCCC3,0.383
15,CCC(C(=O)Nc1cc(C)on1)c1ccccc1 (configuration not stated),0.091
16,O=C(CC1C(=O)NCCN1C(=S)Nc1ccccc1)Nc1ccc2c(c1)OCCO2 (configuration not stated),0.143
17,CC1C(C)C(O)(c2ccccc2)CCN1C (configuration not stated),0.788
18,CCOC(=O)Cc1csc(NC(=O)c2cc3c(s2)CCCC3)n1,-0.559
19,CC(=O)c1cccc(NC(=O)c2ccco2)c1,-0.295
20,CSc1cnn(Cc2ccccc2)c(=O)c1SCc1ccccc1,-0.434
21,CN(/N=C/c1ccncc1)C1=NS(=O)(=O)c2ccccc21,-0.104
22,COC(=O)c1ccccc1NC(=O)c1cc2ncc(Br)cn2n1,-0.044
23,Cc1ccc(C)c(NC(=O)CSc2nc3[nH]ncc3c(=O)[nH]2)c1,0.194
24,Cc1csc(C2=C(O)CN(c3ccc4c(c3)OCCOCCOCCOCCO4)C2=N)n1,-0.137
